Experimental data: the supplement of paper PMC10126150
Values marked as one replicate rest on one cluster of the flow cell; about a third of the high ones do not repeat.

Test system: ATP
Assay: switch fluorescence ratio, 500 uM ATP over buffer (Cy3 cluster intensity, sum of 5 cycles each) (fold (ratio)); higher = stronger signal-on switching upon ATP binding; sequences stand for … in TCGTCGGCAGCGTCAGATGTGTATAAGAGACAGTTTTTTTTTTTTTTTTTTTTTTTTT…TC
Details: aptamer strand: ATP DNA aptamer (quencher-CACCTGGGGGAGTATTGCGGAGGAAGG + anchor), 100 nM annealed; ATP concentration: 500 uM; one replicate
In short: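 Between each of five buffer/ATP cycles, the flow-cell was stripped with NaOH and re-annealed. Each cycle imaged Cy3-labelled switching-strand clusters, annealed to 100 nM quencher-labelled ATP aptamer on a modified Illumina MiSeq flow-cell, first in selection buffer and then after 15 min with 500 uM ATP at 22 °C. The fluorescence ratio is summed target-cycle over summed buffer-cycle Cy3 intensity per cluster, averaged per switch-domain sequence, with clusters outside 100-1000 RFU excluded.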
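Further: ATP exposure 15 min at 22 °C before imaging.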

Sequence	switch fluorescence ratio
GAGTGACGGT	1.06
AGAATTAATT	0.99
GGCGTAGCTA	0.997
GAGCTCCCA	1.07
GCAACCGGGG	1.09
CGGCGCCCGC	1.1
GCATATAAGC	1.02
GTACAGCCGA	1.02
GGTAGAATAT	0.982
GGCCACCC	1.01
AACGTAGGAT	1.01
TTACTTGCTT	1.05
TAGGTGAATA	0.993
CTTGAAGGG	0.978
CAAATGAGG	0.935
TTCCTTCAGG	1.03
GCACCCAGCG	1.36
GGGGTCTTGC	1.05
AAGCAAAGTG	0.979
CCCACTCTCC	1.36
TGTTGCTTAG	1.04
CTTGACACGT	1.03
ATCAGGTTCA	1.01

Sequence	switch fluorescence ratio
TAGTTTCGCC	0.992
GGTACTAAGA	1.05
TAGATGGGAA	1.01
ATGATCAGAT	1.01
TTGTGGTCT	0.974
TTACAACTTG	1
ACTAAATTAC	1.13
TATGTCACTT	1.04
TTTTTAAAT	1.02
GGCAGACCTT	1.15
GGAGAGGAGT	0.964
ATTTCTGAAG	0.985
GTGTTACCTA	1.03
TCCTTTTCAA	1.03
GCCGAGATTT	0.979
GTGGTCTACG	0.941
AGCCAGCAGT	1.1
ACGTTTGTGC	0.966
TTAGGGACGA	1.05
GAGGAGGAGT	0.982
ATAAGGTCTG	0.998
ATGAATTAGT	1
AGCGGGCGTG	0.987

Sequence	switch fluorescence ratio
ATTAATCTCC	1.07
AGTGAGAACG	1.01
TGGTCCTAGC	1.03
GCGAAGTCTT	0.972
ATGCAACTGC	1.16
CGCACAGACT	3.01
ACCCCTTGGA	1.06
TTGCTCATG	1
GGGCAGACTT	1.02
GATTTTCGAC	0.991
GTGGAGAGGA	0.924
GCCATCAGTT	1.02
CCACTTGTCT	1.05
GCAGGAGCTC	1.01
GAAACTACGC	1.28
GAAATCCGTC	1.13
CGGAAAGATG	1.04
TTAATGCG	0.984
TACGAATACA	1.16
GAGTGCATGT	0.968
TGTTAACGAG	1.03
GATTACTAAC	1.16
ACGTAGGTAG	1

Sequence	switch fluorescence ratio
GCTAAGCCTA	0.988
AGTCAACCA	0.981
TTCACGGGCT	1.01
AATGAATAAC	1.01
GACCCTAATT	1.02
AAAGGTGTGA	0.991
TGTGCTGCCG	1.07
ACTAAGACCA	1.06
AGGGATGTCA	0.998
AGAGGGGCTT	0.979
GGACTTAACC	1.08
GTTTCCGTAA	5.43
ACCGACATGG	1.04
TCATTTGCTG	1.08
GTTTACGCTT	0.99
TACGTCAAC	1.32
ACAAGTACTG	1.27
GCTGCACAAA	0.984
CAGTTCAGT	1.02
AAGGTTTGGC	1.09
CATAAGTCAC	1.11
CAGCGGTAAC	1.61
TTTGTTCCGG	0.958

Sequence	switch fluorescence ratio
AGCATCTCAT	0.997
CGCAATGATC	6.11
GTTTAATTGT	1.01
GCCTATTCGA	0.952
ATATTTTCTA	0.98
ACCAGGGTAT	0.997
GGTTGGAGTC	0.993
TCTTCTACGA	1.04
AATTTGCATC	0.967
GAGCCAAGCC	0.979
CTGGAAACGA	1.04
TCACAACATG	0.961
CAAATGCAAG	1.01
AATATGCTAA	0.998
GACAATGTA	1.02
AAACTAGGTG	1.76
TTGGGTCTCA	0.954
CGGGGGGCT	0.992
ATAATTGCTA	0.987
GAATTGGCAA	1.01
GGAGCGTCGT	1.01
CGCCCAGCAA	6.58
AATATCAGGT	1.04

Sequence	switch fluorescence ratio
GGAACTTGAG	1.02
ATTTTACGGA	1.02
GCGATAGTTC	1.05
ACCGAACGGG	1.15
TAATGTTGG	1.01
CCTTGTTGAG	1.07
AGCAGCTTTA	0.989
CGGACGGTCG	1.11
GCACTTTTAC	1.31
TCGTTAGTGG	0.955
GTTACCATTC	0.962
TGACCCAGTG	1.31
ACTACGAATC	2.2
GAGGTATGAG	0.997
CAGTTTCGCG	1
TCCGGTAAAT	1.06
TTCGGTCTA	0.99
CAAGTTCATA	0.975
AATGGAGCGG	0.987
TGATGTACTA	0.995
AGCGAGGAGT	0.997
ATCGTCGCTG	0.994
CAGGCCACAA	1.05

Sequence	switch fluorescence ratio
TTTCTTATCG	1.02
AGATTATTCT	0.946
ACCGGAGGCG	1.02
CCCGGGCTC	0.984
CTCGACGACT	1.03
CAAAAGCACC	0.988
GAAGTCTCAC	1.05
TATATTCGT	1.01
TCATAGAGTC	0.953
TTATTTCGGA	1.09
GTGTTTCGAC	0.999
GCGTGCCGAT	0.978
CGCGGTCTGT	1.03
AAACCATAGC	1.06
TTAGGGT	0.993
GGGGAAATAG	1.01
GGTCGATATA	1
ACCGGCGGGT	1.16
AGTCGTGTGG	1.07
GGCACTAGAA	1.02
